# This is one part of the list.
# Tests used:
# Assay in all cases: glycan array binding signal (z-score within array); higher = stronger binding
# Conditions in all cases: glycan notation: IUPAC condensed, linker removed
# [1] = target: Gal(b1-3)GlcNAc(b1-3)Gal(b1-4)GlcNAc(b1-2)Man(a1-3)[Gal(b1-3)GlcNAc(b1-3)Gal(b1-4)GlcNAc(b1-2)Man(a1-6)]Man(b1-4)GlcNAc(b1-4)GlcNAc
# How it was run: (§1)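 Glycan array binding is given as a within-array Z-score, which can be read as non-binding when negative. The arrays, 3228 of them, came from the Consortium for Functional Glycomics database and were retained only where the protein sequence was available. Z-scores were averaged across arrays of the same protein sequence at different concentrations or buffers and across linkers.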
# [2] = target: Gal(b1-3)GlcNAc(b1-3)Gal(b1-4)GlcNAc(b1-2)[Gal(b1-3)GlcNAc(b1-3)Gal(b1-4)GlcNAc(b1-6)]Man(a1-6)[Gal(b1-3)GlcNAc(b1-3)Gal(b1-4)GlcNAc(b1-2)Man(a1-3)]Man(b1-4)GlcNAc(b1-4)[Fuc(a1-6)]GlcNAc
# How it was run: as §1
# [3] = target: Gal(b1-3)GlcNAc(b1-3)Gal(b1-4)GlcNAc(b1-3)Gal(b1-4)GlcNAc(b1-2)[Gal(b1-3)GlcNAc(b1-3)Gal(b1-4)GlcNAc(b1-3)Gal(b1-4)GlcNAc(b1-6)]Man(a1-6)[Gal(b1-3)GlcNAc(b1-3)Gal(b1-4)GlcNAc(b1-3)Gal(b1-4)GlcNAc(b1-2)Man(a1-3)]Man(b1-4)GlcNAc(b1-4)[Fuc(a1-6)]GlcNAc
# How it was run: as §1
# [4] = target: Gal(b1-3)GlcNAc(b1-3)Gal(b1-4)GlcNAc(b1-6)[Gal(b1-3)GlcNAc(b1-3)]Gal(b1-4)Glc
# How it was run: as §1
# [5] = target: Gal(b1-3)GlcNAc(b1-3)Gal(b1-4)[Fuc(a1-3)]GlcNAc
# How it was run: as §1
# [6] = target: Gal(b1-3)GlcNAc(b1-3)Gal(b1-4)[Fuc(a1-3)]GlcNAc(b1-6)[Gal(b1-3)GlcNAc(b1-3)]Gal(b1-4)Glc
# How it was run: as §1
# [7] = target: Gal(b1-3)GlcNAc(b1-3)GalNAc
# How it was run: as §1
# [8] = target: Gal(b1-3)GlcNAc(b1-6)Gal(b1-4)GlcNAc
# How it was run: as §1
# [9] = target: Gal(b1-3)GlcNAc(b1-6)GalNAc
# How it was run: as §1
# [10] = target: Gal(b1-3)GlcNAc(b1-6)[Gal(b1-3)]GalNAc
# How it was run: as §1
# [11] = target: Gal(b1-3)GlcNAc6S
# How it was run: as §1
# [12] = target: Gal(b1-3)[Fuc(a1-4)]GlcNAc
# How it was run: as §1
# [13] = target: Gal(b1-3)[Fuc(a1-4)]GlcNAc(b1-2)Man
# How it was run: as §1
# [14] = target: Gal(b1-3)[Fuc(a1-4)]GlcNAc(b1-2)Man(a1-3)[Gal(b1-3)[Fuc(a1-4)]GlcNAc(b1-2)Man(a1-6)]Man(b1-4)GlcNAc(b1-4)[Fuc(a1-6)]GlcNAc
# How it was run: as §1
# [15] = target: Gal(b1-3)[Fuc(a1-4)]GlcNAc(b1-3)Gal(b1-3)[Fuc(a1-4)]GlcNAc
# How it was run: as §1
# [16] = target: Gal(b1-3)[Fuc(a1-4)]GlcNAc(b1-3)Gal(b1-4)[Fuc(a1-3)]GlcNAc
# How it was run: as §1
# [17] = target: Gal(b1-3)[Fuc(a1-4)]GlcNAc(b1-6)GalNAc
# How it was run: as §1
# [18] = target: Gal(b1-3)[GlcNAc(b1-6)]GalNAc
# How it was run: as §1
# [19] = target: Gal(b1-3)[Neu5Ac(a2-6)]GalNAc
# How it was run: as §1
# [20] = target: Gal(b1-3)[Neu5Ac(a2-6)]GlcNAc(b1-4)Gal(b1-4)Glc
# How it was run: as §1
# [21] = target: Gal(b1-3)[Neu5Ac(b2-6)]GalNAc
# How it was run: as §1
# [22] = target: Gal(b1-4)Gal
# How it was run: as §1
# [23] = target: Gal(b1-4)GalNAc(a1-3)[Fuc(a1-2)]Gal(b1-4)GlcNAc
# How it was run: as §1
# [24] = target: Gal(b1-4)GalNAc(b1-3)[Fuc(a1-2)]Gal(b1-4)GlcNAc
# How it was run: as §1
# [25] = target: Gal(b1-4)Glc
# How it was run: as §1
# [26] = target: Gal(b1-4)Glc6S
# How it was run: as §1
# [27] = target: Gal(b1-4)GlcNAc
# How it was run: as §1
# [28] = target: Gal(b1-4)GlcNAc(a1-6)Gal(b1-4)GlcNAc
# How it was run: as §1
# [29] = target: Gal(b1-4)GlcNAc(b1-2)Man
# How it was run: as §1
# [30] = target: Gal(b1-4)GlcNAc(b1-2)Man(a1-3)Man(b1-4)GlcNAc(b1-4)GlcNAc
# How it was run: as §1
# [31] = target: Gal(b1-4)GlcNAc(b1-2)Man(a1-3)[Gal(b1-4)GlcNAc(b1-2)Man(a1-6)]Man(b1-4)GlcNAc(b1-4)GlcNAc
# How it was run: as §1
# [32] = target: Gal(b1-4)GlcNAc(b1-2)Man(a1-3)[Gal(b1-4)GlcNAc(b1-2)Man(a1-6)]Man(b1-4)GlcNAc(b1-4)[Fuc(a1-6)]GlcNAc
# How it was run: as §1
# [33] = target: Gal(b1-4)GlcNAc(b1-2)Man(a1-3)[Gal(b1-4)GlcNAc(b1-2)Man(a1-6)][Gal(b1-4)GlcNAc(b1-4)]Man(b1-4)GlcNAc(b1-4)[Fuc(a1-6)]GlcNAc
# How it was run: as §1
# [34] = target: Gal(b1-4)GlcNAc(b1-2)Man(a1-3)[Gal(b1-4)GlcNAc(b1-2)Man(a1-6)][GlcNAc(b1-4)]Man(b1-4)GlcNAc(b1-4)[Fuc(a1-6)]GlcNAc
# How it was run: as §1
# [35] = target: Gal(b1-4)GlcNAc(b1-2)Man(a1-3)[GlcNAc(b1-2)Man(a1-6)]Man(b1-4)GlcNAc(b1-4)GlcNAc
# How it was run: as §1
# [36] = target: Gal(b1-4)GlcNAc(b1-2)Man(a1-3)[GlcNAc(b1-4)][Gal(b1-4)GlcNAc(b1-2)Man(a1-6)]Man(b1-4)GlcNAc(b1-4)GlcNAc
# How it was run: as §1
# [37] = target: Gal(b1-4)GlcNAc(b1-2)Man(a1-3)[Man(a1-6)]Man(b1-4)GlcNAc(b1-4)GlcNAc
# How it was run: as §1
# [38] = target: Gal(b1-4)GlcNAc(b1-2)Man(a1-6)Man(b1-4)GlcNAc(b1-4)GlcNAc
# How it was run: as §1
binder,measurement,setting,value
PkBDPgamma (Plasmodium knowlesi) (protein) SAINQIFLQNNVMDKCNDKRKRGERDWDCPTEKDVCIPDRRYQLCMMEITNLVDTDTHFHSDIIFRKSYSRRRLIYDVGGRGDLLLKKYNNVYSEDLCKDIKWSLQDFGDIIMGTDMEGIGYSLVVQNNLRSIFGTGTSAELDRKKWWNDHKKDIWKAMILSVKEKNRYSAWNCKEDVQIKVEPQIYRWIREWGRDYMSEFREQRRKLNEKCEDKLYYSTMLICTLPPCNNACKSYDEWITGKKKQWDVLSTKFSSVKKAQKIETENIARAYDILKQELNGFNEVTFENEINKRDKLYNYFCVCIVQEARKNTQENVKNVGSGVESKAPSSNPINEAVKSSSGEGKVQEDSAHRSVNEGEGKSSTNEADPGSQPGAAASGGGSGGGTGGGVDLAPQMLRELQETNAALQDVRELLRQQVKEITFLKNTVMECDACGGPLDRNLPPLAPLGPTGGWSHPQFEK,glycan array binding signal (z-score),[1],0.439
same,glycan array binding signal (z-score),[2],0.405
same,glycan array binding signal (z-score),[3],0.06
same,glycan array binding signal (z-score),[4],0.034
same,glycan array binding signal (z-score),[5],0.293
same,glycan array binding signal (z-score),[6],-0.308
same,glycan array binding signal (z-score),[7],0.426
same,glycan array binding signal (z-score),[8],0.143
same,glycan array binding signal (z-score),[9],0.183
same,glycan array binding signal (z-score),[10],-0.036
same,glycan array binding signal (z-score),[11],0.211
same,glycan array binding signal (z-score),[12],0.044
same,glycan array binding signal (z-score),[13],-0.493
same,glycan array binding signal (z-score),[14],0.346
same,glycan array binding signal (z-score),[15],-0.432
same,glycan array binding signal (z-score),[16],-0.505
same,glycan array binding signal (z-score),[17],-0.142
same,glycan array binding signal (z-score),[18],-0.121
same,glycan array binding signal (z-score),[19],-0.396
same,glycan array binding signal (z-score),[20],-0.239
same,glycan array binding signal (z-score),[21],0.038
same,glycan array binding signal (z-score),[22],0.563
same,glycan array binding signal (z-score),[23],-0.108
same,glycan array binding signal (z-score),[24],-0.404
same,glycan array binding signal (z-score),[25],0.047
same,glycan array binding signal (z-score),[26],-0.16
same,glycan array binding signal (z-score),[27],-0.039
same,glycan array binding signal (z-score),[28],-0.526
same,glycan array binding signal (z-score),[29],0.03
same,glycan array binding signal (z-score),[30],0.159
same,glycan array binding signal (z-score),[31],-0.123
same,glycan array binding signal (z-score),[32],-0.246
same,glycan array binding signal (z-score),[33],-0.328
same,glycan array binding signal (z-score),[34],-0.641
same,glycan array binding signal (z-score),[35],-0.323
same,glycan array binding signal (z-score),[36],-0.495
same,glycan array binding signal (z-score),[37],-0.159
same,glycan array binding signal (z-score),[38],-0.218

# Source: the supplement of paper PMC8728848
